Results published in publication PMC10112805.
Changes are numbered by the printed parent chain. These are yes or no findings as the source states them, for the method shown. In cells and extracts the contact can be indirect. Some entries that bind do so weakly or less than the wild type. For some of these results: Tags and fused reporters may be left off the sequences shown.

Protein sequences, listed by entry. Tags and fused reporters are not part of them.
UniProt Q86WV6: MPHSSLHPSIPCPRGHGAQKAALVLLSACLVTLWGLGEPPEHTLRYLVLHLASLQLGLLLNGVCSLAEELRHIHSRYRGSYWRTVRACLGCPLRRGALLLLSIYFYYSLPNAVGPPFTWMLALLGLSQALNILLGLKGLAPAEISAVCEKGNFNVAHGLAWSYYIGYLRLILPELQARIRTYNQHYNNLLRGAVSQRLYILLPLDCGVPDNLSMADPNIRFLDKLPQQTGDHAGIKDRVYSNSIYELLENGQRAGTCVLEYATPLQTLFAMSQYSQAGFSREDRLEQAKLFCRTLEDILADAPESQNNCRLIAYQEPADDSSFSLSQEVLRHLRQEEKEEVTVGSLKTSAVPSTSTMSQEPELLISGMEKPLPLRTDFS

T1: STING, endogenous in mouse primary peritoneal macrophages (mouse (endogenous in primary peritoneal macrophages)) (UniProt Q3TBT3)
T1 sequence: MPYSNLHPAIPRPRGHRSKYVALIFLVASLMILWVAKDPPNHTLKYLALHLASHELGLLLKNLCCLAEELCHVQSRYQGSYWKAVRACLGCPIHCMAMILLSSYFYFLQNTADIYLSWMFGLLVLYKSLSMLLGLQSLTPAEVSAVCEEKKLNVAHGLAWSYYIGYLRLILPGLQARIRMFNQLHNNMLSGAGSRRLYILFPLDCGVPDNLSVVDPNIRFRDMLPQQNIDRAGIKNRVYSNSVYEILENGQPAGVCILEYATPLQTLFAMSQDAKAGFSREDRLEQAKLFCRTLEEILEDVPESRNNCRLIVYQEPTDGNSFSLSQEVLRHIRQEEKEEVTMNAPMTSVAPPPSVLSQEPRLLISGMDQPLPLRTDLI

B1: SELENOK-GFP (selenoprotein K with a GFP tag) (protein, UniProt Q9Y6D0 1-94)
chain: MVYISNGQVLDSRSQSPWRLSLITDFFWGIAEFVVLFFKTLLQQDVKKRRSYGNSSDSRYDDGRGPPGNPPRRMGRINHLRGPSPPPMAGGUGR
B2: SELENOK, endogenous in mouse primary peritoneal macrophages (protein, UniProt Q9JLJ1 1-94)
chain: B1 chain with S14N, L20V, L22F, I23L, L36F, S51G, N54S, N78S
B3: SELENOK-GFP C43 (C-terminal half of SELENOK, 43-94) (domain or fragment, UniProt Q9Y6D0 43-94)
chain: QQDVKKRRSYGNSSDSRYDDGRGPPGNPPRRMGRINHLRGPSPPPMAGGUGR

Legend:
[1] = biological target: STING-MYC (stimulator-of-interferon gene with a MYC tag) (UniProt Q86WV6); test: co-IP; HEK 293T cells co-transfected with the tagged plasmids; lysed in IP lysis buffer (50 mM Tris-HCl pH 7.4, 50 mM EDTA, 150 mM NaCl, 1% NP-40); immunoprecipitation with anti-MYC, anti-GFP or anti-HA and Protein A/G PLUS-Agarose overnight at 4 °C; five washes; immunoblot
[2] = biological target: STING-HA (stimulator-of-interferon gene with an HA tag) (UniProt Q86WV6); test: as above
[3] = biological target: T1, STING, endogenous in mouse primary peritoneal macrophages (mouse (endogenous in primary peritoneal macrophages)); test: co-IP; endogenous proteins in mouse primary peritoneal macrophages stimulated with cGAMP; immunoprecipitation with a STING-specific antibody; IP lysis buffer (50 mM Tris-HCl pH 7.4, 50 mM EDTA, 150 mM NaCl, 1% NP-40); immunoblot

| Binder | binding [2] | further results |
| --- | --- | --- |
| B1 | – | binding [1]: binds |
| MVYISNGQVLDSRSQSPWRLSLITDFFWGIAEFVVLFFKTLL (domain or fragment, UniProt Q9Y6D0 1-42) [SELENOK-GFP N42 (N-terminal half of SELENOK, 1-42)] | binds | – |
| B2 | – | binding [3]: binds |
| B3 | no binding | – |
